Among all 350,000 compounds or so, about 9,900 (2.8%) were called active. Inconclusive results, whose numbers are uncertain, are shown with a selection of clear calls. Calls follow the shape of the dose curve; as a rule, active = well fitted activation curve with a large enough effect; inconclusive = small, poorly fitted or top-dose-only effect; inactive = no such curve, though single readings can be large or run the other way. No potency is given beside an inconclusive call; the fits are too rough.
Test: A quantitative high throughput screen for small molecules that induce DNA re-replication in MCF 10a normal breast cells. Also: nearly all actives have a fitted effect of over 50% in size. As to activity, positive = re-replication: % of control where 0% means no effect.
Conditions: MCF 10A DNA re-replication, Hoechst nuclear intensity, 48 h; activity, positive = re-replication: at 46.1 µM (top of the series)
Potency is read from the fitted curve at half-maximal effect; tags tell the direction and shape of the fitted curve.

Q: With O=C(Nc1ccc(Br)cc1)C1CC=CCC1C(=O)OCC1CCCO1 (centres undefined) as the molecule, how does the Potency read?
A: inconclusive [activator, partial curve, poor fit]

Q: With CCn1nc(C)c(CNC(=O)C2CCC(=O)N(CCc3ccc(OC)cc3)C2)c1C (centres undefined) as the molecule, how does the “activity, positive = re-replication” value read?
A: inactive: 5.09%

Q: For O=C(N/N=C\c1ccccn1)c1ccccc1O, which Potency is on record?
A: inconclusive [activator, full curve]

Q: Which “activity, positive = re-replication” value does the source give for CC(=O)NC(=S)Nc1ccccc1F here?
A: inactive: 3.96%

Q: With O=C(Oc1c(Cl)cc(Cl)c2cccnc12)c1cccc([N+](=O)[O-])c1 as the molecule, how does the Potency read?
A: active: 10.3 µM

Q: Which “activity, positive = re-replication” value does the source give for CC(C)(C)OC(=O)NCc1ccc(CNC(=O)c2ncn(Cc3ccccc3)c2C(=O)NCc2ccc(CNC(=O)OC(C)(C)C)cc2)cc1 here?
A: inactive: -16%

Q: With Cc1cccc(N(C)c2cc(C)nc3nc(C)nn23)c1 as the molecule, how does the “activity, positive = re-replication” value read?
A: inactive: 11.9%

Q: For Cc1cccc(NC(=S)NCC23C=CC(O2)C2C(=O)N(c4ccc(Cl)cc4)C(=O)C23)c1 (centres undefined), which Potency is on record?
A: inconclusive [activator, single point]

Q: Which “activity, positive = re-replication” value does the source give for Cc1c(NC(=O)c2ccco2)c(=O)n(-c2ccccc2)n1C here?
A: inactive: -0.429%

Q: Which Potency does the source give for CCc1cc2c3c(c1)C1(C(=O)N3C(C)(C)CC2C)C(C#N)=C(N)N2C(=C1C#N)Nc1ccccc12 (centres undefined) here?
A: inconclusive [activator, single point]

Q: With CN(C)C=Nc1ccc2nc3c(cc2c1)[nH]c1ccccc13 as the molecule, how does the Potency read?
A: inconclusive [activator, single point]

Q: Which “activity, positive = re-replication” value does the source give for CCOC(=O)C1=C(c2ccccc2)NC(SCC(=O)NC2CCCCC2)=C(C#N)C1c1ccco1 (centres undefined) here?
A: inactive: 0.0256%

Q: With CCc1ccc2oc(-c3ccc(OC)cc3)cc(=Nc3cccc(C(=O)O)c3)c2c1 as the molecule, how does the Potency read?
A: active: 23.1 µM

Q: With COC(=O)CCC(=O)Nc1sc2c(c1C#N)CCCC2 as the molecule, how does the Potency read?
A: inconclusive [activator, partial curve, poor fit]

Q: With CC(C)C1(c2ccsc2)NC(=O)NC1=O (centres undefined) as the molecule, how does the “activity, positive = re-replication” value read?
A: inactive: -7.19%

Q: With Cc1ccc(-c2csc(NC(=O)C3=COCCO3)n2)cc1 as the molecule, how does the Potency read?
A: inconclusive [activator, single point]

Q: For CC(C)c1ccc(-c2cc(C(=O)N3CCOCC3)c3cc(Br)ccc3n2)cc1, which “activity, positive = re-replication” value is on record?
A: inactive: 6.45%

Q: Which Potency does the source give for COc1cc2c(cc1OC)CN(C(=O)c1cc(C3CC3)nn1-c1ccccc1)CC2 here?
A: inconclusive [activator, single point]

Q: For CCC1=C(OC(=O)N(CC)CC)N2C(=O)OC(=NCc3ccccc3)[C@]2(C)[C@H]2C1=CC[C@H]1C(=O)N(CC(=O)OC)C(=O)[C@H]12, which Potency is on record?
A: inconclusive [activator, full curve, poor fit]

Q: Which “activity, positive = re-replication” value does the source give for COc1cc(CC(=O)OCC(=O)N2C(C)CCCC2C)cc(OC)c1OC (centres undefined) here?
A: inactive: 1.52%

Q: With CC(C)(C)c1nc(NCCN2CCOCC2)c2nnn(Cc3ccccc3Cl)c2n1 as the molecule, how does the Potency read?
A: inconclusive [activator, partial curve, poor fit]

Q: Which Potency does the source give for CCOC(=O)C1=C(C)N(c2ccc(C)cc2)C(=O)/C1=C\c1ccc(O)c(OC)c1 here?
A: inconclusive [activator, single point]

Q: Which “activity, positive = re-replication” value does the source give for N=C1C(c2ccccc2)=C(O)CN1c1cccc(S(=O)(=O)N2CCOCC2)c1 here?
A: inactive: 4.49%

Q: With Cc1ccc(-n2nc3ccc(N)cc3n2)cc1Cl as the molecule, how does the Potency read?
A: inconclusive [activator, partial curve, poor fit]

Q: With Cc1cc(C)cc(NC(=S)NC(=O)Cc2ccccc2)c1 as the molecule, how does the Potency read?
A: inconclusive [activator, single point]

Q: With CC(=O)Nc1ccc(S(=O)(=O)Nc2nccc(C3Cc4ccccc4C(=O)O3)n2)cc1 (centres undefined) as the molecule, how does the “activity, positive = re-replication” value read?
A: inactive: -7.31%

Q: For O=C(c1cccc(C(F)(F)F)c1)N1CCc2c([nH]c3ccccc23)C1C(F)(F)F (centres undefined), which Potency is on record?
A: inconclusive [activator, single point]

Q: With COc1ccc(C(=O)NCc2c(C)nn(Cc3ccccc3)c2C)cc1S(=O)(=O)N1CCOCC1 as the molecule, how does the Potency read?
A: active: 14.6 µM

Q: For N#Cc1cnn(-c2ccccc2)c1NC(=O)c1ccccc1F, which “activity, positive = re-replication” value is on record?
A: inactive: 1.12%

Q: Which Potency does the source give for Cc1cc(/C=C2\SC(=O)NC2=O)c(C)n1-c1ccc(N2CCOCC2)cc1 here?
A: inconclusive [activator, partial curve, poor fit]

Q: For O=[n+]1cc(-c2ccc(Br)cc2)n([O-])c2c1CCC2, which “activity, positive = re-replication” value is on record?
A: inactive: 1.92%

Q: Which Potency does the source give for O=[N+]([O-])c1ccc(C2CC(c3ccccc3)=Nc3ccccc3S2)cc1 (centres undefined) here?
A: inconclusive [activator, single point]

Q: With NS(=O)(=O)c1ccc(CCNC(=O)C2CCN(S(=O)(=O)c3cnc[nH]3)CC2)cc1 as the molecule, how does the Potency read?
A: active: 20.6 µM

Q: With CCCCCc1ccc(OCCCC[n+]2cccc(C)c2)c(CCCCC)c1 as the molecule, how does the Potency read?
A: inconclusive [activator, single point]

Q: With Cc1ccc(Cn2cnc3c(cnn3C(C)(C)C)c2=O)cc1 as the molecule, how does the Potency read?
A: inconclusive [activator, single point]

Q: With COc1ccc(/C=C/C(=O)Nc2cc(S(=O)(=O)N3CCOCC3)ccc2C)cc1OC as the molecule, how does the Potency read?
A: inconclusive [activator, single point]

Q: With Cc1ccc(C)c(Oc2coc3cc(O)ccc3c2=O)c1 as the molecule, how does the “activity, positive = re-replication” value read?
A: inactive: -2.98%

Q: For COc1ccc(-c2cc(C(=O)Nc3ccccc3N3CCOCC3)c3ccccc3n2)cc1OC, which Potency is on record?
A: active: 16.4 µM

Q: Which Potency does the source give for CC(CCc1ccccc1)NC(=O)C(=O)Nc1ccccc1 (centres undefined) here?
A: inconclusive [activator, partial curve]

Q: Which Potency does the source give for Brc1ccc(CSc2ccc3nnc(-c4cccnc4)n3n2)cc1 here?
A: inconclusive [activator, partial curve, poor fit]

Q: Which Potency does the source give for Cc1ccc2nc(-c3ccccc3)cc(C(=O)N(C)CC(=O)Nc3ccccc3Br)c2c1 here?
A: inconclusive [activator, single point]

Q: With CC(=O)n1cc([C@@H]2C=C(C(=O)N3CCN(Cc4ccc5c(c4)OCO5)CC3)O[C@H](OCc3ccc(CO)cc3)C2)c2ccccc21 as the molecule, how does the Potency read?
A: active: 13 µM

Q: For Cc1ccc2nc(NC(=O)c3ccc(S(=O)(=O)N4CCCc5ccccc54)cc3)sc2c1, which Potency is on record?
A: active: 16.4 µM

Q: Which Potency does the source give for COC(=O)[C@@]12CCCCN1[C@H](c1ccc(-c3ccc(OC)cc3)c(OC)c1)[C@@H]1C(=O)N(C)C(=O)[C@@H]12 here?
A: inconclusive [activator, partial curve, poor fit]
